Results taken from the RNAGym collection of RNA variant scans (doi:10.1073/pnas.2313332121).
Variants at the background level are over-represented here.

B1: TPR 5TU (parent)
chain: GGAUCUUCUCGAUCUAACAAAAAAGACAAAUCUGCCACAAAGCUUGAGAGCAUCUUCGGAUGCAGAGGCGGCAGCCUUCGGUGGCGCGAUAGCGCCAACGUUCUCAACUAUGACACGCAAAACGCGUGCUCCGUUGAAUGGAGUUUAUCAUG

Variants of: B1
Assay: polymerase ribozyme fitness, log enrichment relative to wild type (log ratio); higher = more active; in vitro selection for triplet polymerase activity
In short: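 A single round of triplicate in vitro selection, including frozen incubation at −7 °C, was applied to PCR-built, transcribed mutant libraries of each subunit of a heterodimeric triplet polymerase ribozyme. Illumina sequencing of input and output libraries retained genotypes with ≥10 input reads and ≥1 read per output. Fitness is the base-2 logarithm of genotype enrichment divided by wild-type enrichment, from inverse-variance-weighted replicate averages.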

Variant	polymerase ribozyme fitness (log ratio)
GGAUCUUCUCGAUCUAACAAAAAAGACAAAUCUGCCACAACGCUUGAGAGCAUCUUCGGAUGCAGAGGCGGCAGCCUUCGGUGGCGCGAUAGCGCCAACGUUCUAAACUAUGACACGCAAAACGCGUGCUCCGUUGAAUGGAGUUUAUCAUG [A41C C105A]	-2.1
GGAUCUUCUCGAUCUAACAAAAAAGACAAAUCUGCCACAACGCUUAAGAGCAUCUUCGGAUGCAGAGGCGGCAGCCUUCGGUGGCGCGAUGGAGCCAACGUUCUCAACUAUGACAGGCAAAACGCGUGCUCCGUUGAAUGGAGUUUAUCAUG [A41C G46A A91G C93A C116G]	≤ -4.2
GGAUCUUCUCGAUCUAACAAAAAAGACAAAUCUGCCACAACGCUUGAGAGCAUCUUCGGAUGCAGGGGCGGCAGCCUUCGGUGGCGGGAUAGCGCCAACGUUCUCAACUAUGACACGCAAAACGCGUGCUCCGUUGAAUGGAGGUUAUCAUG [A41C A66G C87G U144G]	≤ -4.2
GGAUCUUCUCGAUCUAACAAAAAAGACAAAUCUGCCACAACGCUUGAGAGCAUCUUGGGAUGCAGAGGCGGCAGCCUUCGGUGGCGCGAUAGCGCCAACGUUCUCAACUAUGACACGCAAAACGCGUGCUCCGUUUAAUGGAGUUUAUCAUG [A41C C57G G136U]	-3.64
GGAUCUUCUCGAUCUAACAAAAAAGACAAAUCUGCCACAACGCUUGAGAGCAUCUUCGGAUGCAGAGGCGGCAGCCUUCGGUGGCGCGAUAGCGGCAACGUUCUCAACUAUGACACGCAAAACGCGUGCUCCGUUGAAUGGAGUUUAUCAUG [A41C C95G]	-0.72
GGAUCUUCUCGAUCUAACAAAAAAGACAAAUCUGCCACAACGAUUGAGAGCAUCUUCGGAUGCAGAGGCGGCAGCCUUCGGUGGCACGAUCGCGCAAACGUUCUCAACUAUGACACGCAAAACGCGUGCUCCGUUGAAUGGAGUUUAUCAUG [A41C C43A G86A A91C C96A]	≤ -4.2
GGAUCUUCUCGAUCUAACAAAAAAGACAAAUCUGCCACAACGCUUGAGAGCAUCUUGGGAUGCAGAGGCGGCAGCCUUCGGUGGCGAGAUAGCGCCAACGUUCUCAACUAUGACACGCAAAACGCGUGCUCCGUUGAAUGGACUUUAUCAUG [A41C C57G C87A G143C]	≤ -4.2
GGAUCUUCUCGAUCUAACAAAAAAGACAAAUCUGCCACAACGCUUGAGAGCAUCUUCGGAUGUAGAGGCGGCAGCGUUCGGUGGCGCGAUAGAGCCAACGUUCUCAACUAUGACACGCAAAACGCGAGCUCCGUUGAAUGGAGUUUAUCAUG [A41C C63U C76G C93A U127A]	≤ -4.2
GGAUCUUCUCGAUCUAACAAAAAAGACAAAUCUGCCACAACCCUUGAGAGCAUCUUCGGAUGCAGAGGCGGCAGCCUUCGGUAUCGCGGUAGCGCCAACGUUCUCAACUAUGACAAGCAAAACGCGUGCUCCGGUGAAUAGAUUUUAUCAUG [A41C G42C G83A G84U A89G C116A U134G G140A G143U]	≤ -4.2
GGAUCUUCUCGAUCUAACAAAAAAGACAAAUCUGCCACAACGCUUGAGAGCAUCUUUGGAUGCAGAGGCGGCAGCCUUCGGUGGCGCGAUAGCGCUAACGUUCUCAACUAUGACACGCAAAACGCGUGCUCCGUUGAAUGGAGUUUAUCAUG [A41C C57U C96U]	-0.458
GGAUCUUCUCGAUCUAACAAAAAAGACAAAUCUGCCACAACGCUUGAGAGCAUCUUCGGAUGCAGAGGCGGCAGCCUUCGGUGGCGAGAUAGCGCCAACGUUCUCAACUAUGACACGCAAAACGCGUGCUCCGUUGAAUGGAGGUUAUCAUG [A41C C87A U144G]	≤ -4.2
GGAUCUUCUCGAUCUAACAAAAAAGACAAAUCUGCCACAACGCUUGAGAGAAUCUACCGAUGCAGAGGCGGCAGCCUUCGGCGGCGAGAUAGCGCCAACGUUCUCAACUAUGACACGCAAAACGCGUGCUCCGUUUAAUGGAGUUUAUCAUG [A41C C51A U56A G58C U82C C87A G136U]	≤ -4.2
GGAUCUUCUCGAUCUAACAAAAAAGACAAAUCUGCCACAACGCUUGAGAGCAUCUUCGGAUGCAGAGGCGGCAGCCUUCGGUGGUGCGAUAGCGCCAACGUUCUCAACUAUGACACGCAAAUCGCCUGCUCCGUUGAAUGGAGUUUAUCAUG [A41C C85U A122U G126C]	-0.655
GGAUCUUCUCGAUCUAACAAAAAAGACAAAUCUGCCACAACGCUUGAGAGCAUCUUCGGAUGGCGAGGCGGCAGCCUUCGGUGGCGCGAUAGCGCCAACGUUCUCAACUACGACACGCAAAACGCGUGCUCCGUUGAAUGGAGUUUAUCAUG [A41C C63G A64C U111C]	≤ -4.2
GGAUCUUCUCGAUCUAACAAAAAAGACAAAUCUGCCACAACGCUUGAGAGCAUCUUCGGAUGCAGAGGCGGCAGCCUUCGGUGGUGCGAUAGCGCCAAGGUUCUCAACUAUGACACGCAAAACGCGUGCUCGGUUGAAAGGAGUUUAUCAUG [A41C C85U C99G C132G U139A]	≤ -4.2
GGAUCUUCUCGAUCUAACAAAAAAGACAAAUCUGCCACAACCCUUGAGAGCAUCUUCGGAUGCAGAGGCGGCAGCCGUCGGUGGCGCGAUAGCGCCAACGUUCUCAACUAUGGCACGCAAAACGCGUGCUCCGUUGAAUGGAGUUUAUCAUG [A41C G42C U77G A113G]	≤ -4.2
GGAUCUUCUCGAUCUAACAAAAAAGACAAAUCUGCCACAACGCUUGAGAGAAUCUUCGGAUGCGGAGGCGGCAGCCUUCGGUGGCGCGAUAGCGCAAAUGUUCUCAACUAUGACACGCAAAACGCGUGCUCCGUUGAAUGGAGUUUAUCAUG [A41C C51A A64G C96A C99U]	≤ -4.2
GGAUCUUCUCGAUCUAACAAAAAAGACAAAUCUGCCACAACGCUUGAGAGCAUCUUCGGAUGCAGAGGCGGCAGCCUUCGGUGGCGCGAUAGCGCCAACGUUCUCAACUAUGAUACGCAAAACGCGCGCUCCGUUGAAUGGAGUUUAUCAUG [A41C C114U U127C]	-3.96
GGAUCUUCUCGAUCUAACAAAAAAGACAAAUCUGCCACAACGCUUUAGAGCAUCUUCGGAUGCAGAGGCGGCAGCAUUCGGUGGCGCGAUAGCGCCAACGUACUCAACUAUGACACGCAAAACGCGUGCUGCGUUGAAUGGAGUUUAUCAUG [A41C G46U C76A U102A C131G]	≤ -4.2

Variant	polymerase ribozyme fitness (log ratio)
GGAUCUUCUCGAUCUAACAAAAAAGACAAAUCUGCCACAACGCUUGAGAGCAUCUUCGGAUGCAGAGGCGGCAGCCUUCGGUGGCGCGAUAGGGCCAACGUUCUCAACUAUGACACGCAAAACGCGUGCUCCGUUGAAUGGAGUUUAUCAUG [A41C C93G]	-3.5
GGAUCUUCUCGAUCUAACAAAAAAGACAAAUCUGCCACAACGCUUGAGAGCAUCUUCGGAUGCAGAGGCGGCAGCCUUCGGUGGCGCGAUAGGGCCAAAGUUCUCAACUAUGACACGCAAAACGCGUGCUCCCUUGAAUGGAGUUUAUCGUG [A41C C93G C99A G133C A150G]	≤ -4.2
GGAUCUUCUCGAUCUAACAAAAAAGACAAAUCUGCCACAACGCUUGAGAGCAUCUUCGGAUGCAGAGGCGGCAGCCUUCGGUGGCGCGAUAGCGCCAACGUUCUCAACUAUGACACGCAAAACGCGUGCUCCGUUGAAUGGAGUUUAUAAUG [A41C C149A]	-4.19
GGAUCUUCUCGAUCUAACAAAAAAGACAAAUCUGCCACAACGCUUGAGAGCAUUUUCGGAUGCAGAGGCGGCAGCCUUCGGUGGCGCGAUAGCGCCAACGUUCUCAACUGUGACACGCAAAACGCGUGCUCCGUUGAAUGGAGUUUAUCAUG [A41C C54U A110G]	-2.74
GGAUCUUCUCGAUCUAACAAAAAAGACAAAUCUGCCACAACGCUUGAGAGCAUGUUCGGAUGCAGAAGCGGCAGCUUUCGGUGGCGUGAUAGCGCCAACGUUCUCGACUAUGACACGCAAAACGCGUGCUCCGUUGAAUGGAGUUUAUCAUG [A41C C54G G67A C76U C87U A106G]	≤ -4.2
GGAUCUUCUCGAUCUAACAAAAAAGACAAAUCUGCCACAACGCUUGAGAGCAUCUUCGGAUGCAGAGGCGGCAGCCUUCGGUGGCGCGAUAGCGCCAACGUUCUCAACUAUGACACGCGAAACGCGUGCUCCGUUGAAUCGAGUUUAUCAUG [A41C A119G G140C]	≤ -4.2
GGAUCUUCUCGAUCUAACAAAAAAGACAAAUCUGCCACAACGCUUGAGAGCAUCUUCGGAUGCAGAGGCGGCAGCCUUCGGUGGCGCGAUAGCGCCAACGUUCUCAACUAUGACACGCAAAACGCGUGCUCCGUUGCAUGGAGUUUAUCAUG [A41C A137C]	-3.61
GGAUCUUCUCGAUCUAACAAAAAAGACAAAUCUGCCACAACGUUUGAGAGGAUCUUCGGAUGCAGAGGCGGCAGCCUUCGGUGGCGCGAUAGCGCGAACGUUCUCAUCUAUGACACGCACAACGCGUGCUCCGUUGAAUGGAGUUUAUCAUG [A41C C43U C51G C96G A107U A120C]	≤ -4.2
GGAUCUUCUCGAUCUAACAAAAAAGACAAAUCUGCCACAACGUUUGAGAGCAUCUUCGGAUGCAGAGGCGGCAGCCUUCGGUCGCGCGAUAGCGCCAACGUUCUCAACUAUGACAUGCAAAACGCGUGCUUCGUUGAAUGGCGUUUAUCAUG [A41C C43U G83C C116U C131U A142C]	≤ -4.2
GGAUCUUCUCGAUCUAACAAAAAAGACAAAUCUGCCACAACGCUUGAGAGCAUCUUCGGAUGCAGAGGGGGCAGCGUUCGGUGGGGCGAUAGCGCCAACGUUCUCAACUAUGACACGCAAAACGCGUGCUCCGAUGAAUGGAGUUUAUCUUG [A41C C69G C76G C85G U134A A150U]	≤ -4.2
GGAUCUUCUCGAUCUAACAAAAAAGACAAAUCUGCCACAACGCUUGAGAGCAUCUUCGGAUGCAGAGGCGGCAGCCUUCGGUGGCGCGAUAGCGCCAACGUUCUCAACUAUGUAACGCAAAACGCGUGCUCCGUUGAAUGGAGUUUAUCAUG [A41C A113U C114A]	≤ -4.2
GGAUCUUCUCGAUCUAACAAAAAAGACAAAUCUGCCACAACCCUUGAGAGCAUUUUCGCAUCCAGAGGCGGCAGCCUUCGGUGGCGCGAUAGCGCCAACGUUCUCAACUAUGACACGCAAAACCCGUGCUCCGUUGAAUGGAGUUUACCAUG [A41C G42C C54U G59C G62C G124C U148C]	≤ -4.2
GGAUCUUCUCGAUCUAACAAAAAAGACAAAUCUGCCACAACGCUUGAGAGCAUCUUCGGAUGCAGAGGCGGCAGUCUUCGGUGGCGCGAUAGCGUAAACGUUCCUAACUAUGACACGCAAAACGCGUGCUCCGUUGAAUGGAGUUUAUCAUG [A41C C75U C95U C96A U104C C105U]	≤ -4.2
GGAUCUUCUCGAUCUAACAAAAAAGACAAAUCUGCCACAACGCUUGAGAGCAUCUUCGGAUGGAGCGGCGGCAGCCUUCGGUGGCGGGAUAGCGCCAACGUUCUCCACUAUGACACGCAAAACGCGUGCUCCGUUGAAUGGAGUUUAUCCUG [A41C C63G A66C C87G A106C A150C]	≤ -4.2
GGAUCUUCUCGAUCUAACAAAAAAGACAAAUCUGCCACAACGCUUGAGAGCAUCUUCGGAUGCAGAGGCGGCAGCCUUCGGUGGCGGGAUAGCGCCAACGUUCUCAACUAUGACACGGAAAACGCGUGCUCCGUUGAAUGUAGUUUAGCAUG [A41C C87G C118G G141U U148G]	≤ -4.2
GGAUCUUCUCGAUCUAACAAAAAAGACAAAUCUGCCACAACGCUUGAGAGCAUCUUCGGAUGCAGAGGCGGCAGCCUUCGGUGGUGCGAUAGCGCAAACGUUCUGAACUAUGACACGCAAAACGUGUGCUCCGUUGAAUGGAUUUUAUCAUG [A41C C85U C96A C105G C125U G143U]	≤ -4.2
GGAUCUUCUCGAUCUAACAAAAAAGACAAAUCUGCCACAACGCUUGAGAGCAUCUUCGGAUGCAGAGGCGGCAGCCUUCGGUGGCGCGAUCGCGCCAACGUUCUCUACUAUGACACGCAAAACGCGUGCUCCGUUGAAUGGAGUUUACCAUG [A41C A91C A106U U148C]	≤ -4.2
GGAUCUUCUCGAUCUAACAAAAAAGACAAAUCUGCCACAACGCUUGAGAGUAUCUUCGGAUGCAGAGGCGGCAGCCACCGGUGGCGCCAUAGCGCCAACGUUCUCAACUAUGACACGCAAAACGGGUGCUCCGUUGAAUGUAGUUUAUCAUG [A41C C51U U77A U78C G88C C125G G141U]	≤ -4.2
GGAUCUUCUCGAUCUAACAAAAAAGACAAAUCUGCCACAACGUUUGAGAGCAUCUUCGGAUGCAGAGGCGUCAGCCUGCGGUGGCGCGAUAGUGCCAACGUUCUCAACUAUGACACGCAAAACGCGUGCUCCGUUGAAUGGAGUUUAUCAUG [A41C C43U G71U U78G C93U]	≤ -4.2
